Measured values reported in the supplement of paper PMC3334620.
Whole data set: some 33,000 sequences, median “E-score (-0.5 to 0.5)” near -0.035, cut for the highest 2% near 0.35. This is one part of the list.

target: T1, Pdr3 (UniProt P33200); test: PBM E-score (8-mer binding enrichment) (E-score (-0.5 to 0.5)); higher = stronger / more preferred TF binding; most listed sequences are background and not binding sites; settings: protein concentration: 200 nM; construct: GST-full length
T1 sequence: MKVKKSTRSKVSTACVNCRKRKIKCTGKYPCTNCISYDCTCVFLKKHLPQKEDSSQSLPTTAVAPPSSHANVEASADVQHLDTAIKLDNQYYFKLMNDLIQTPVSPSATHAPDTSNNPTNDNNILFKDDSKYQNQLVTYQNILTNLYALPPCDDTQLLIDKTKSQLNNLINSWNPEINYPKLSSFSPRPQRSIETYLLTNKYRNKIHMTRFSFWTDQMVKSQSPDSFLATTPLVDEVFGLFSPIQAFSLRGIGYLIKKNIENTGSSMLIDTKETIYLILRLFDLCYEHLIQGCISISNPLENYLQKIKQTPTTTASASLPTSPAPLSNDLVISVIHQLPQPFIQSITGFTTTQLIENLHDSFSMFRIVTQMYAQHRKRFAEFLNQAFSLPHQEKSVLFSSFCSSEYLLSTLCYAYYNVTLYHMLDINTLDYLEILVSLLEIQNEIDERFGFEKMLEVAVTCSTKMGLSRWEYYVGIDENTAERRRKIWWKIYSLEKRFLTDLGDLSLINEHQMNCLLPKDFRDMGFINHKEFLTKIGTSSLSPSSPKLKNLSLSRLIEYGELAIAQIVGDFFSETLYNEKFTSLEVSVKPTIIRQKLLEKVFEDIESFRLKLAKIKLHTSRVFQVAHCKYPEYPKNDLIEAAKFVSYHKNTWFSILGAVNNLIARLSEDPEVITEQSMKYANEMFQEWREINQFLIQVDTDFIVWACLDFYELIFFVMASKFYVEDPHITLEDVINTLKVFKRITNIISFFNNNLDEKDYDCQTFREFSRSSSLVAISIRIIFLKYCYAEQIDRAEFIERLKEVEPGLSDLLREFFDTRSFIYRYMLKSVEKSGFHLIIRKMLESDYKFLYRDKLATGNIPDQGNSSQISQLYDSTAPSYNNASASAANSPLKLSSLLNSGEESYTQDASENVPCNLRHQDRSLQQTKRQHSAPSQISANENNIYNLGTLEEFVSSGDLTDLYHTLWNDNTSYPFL
How it was run: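 GST-tagged yeast TFs (full-length or DNA-binding domain) were made by PURExpress in vitro transcription/translation and applied at about 100-200 nM to universal all-10-mer Agilent arrays. The arrays were made double-stranded by primer extension, on fresh or once-stripped slides. Bound protein was detected with fluorescent anti-GST, and scans were normalised with masliner. Each ungapped eight-base word, pooled with its reverse complement, received an E-score (modified Wilcoxon-Mann-Whitney statistic) from the Universal PBM Analysis Suite.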

| Sequence | PBM E-score |
| --- | --- |
| AGTGATTA | 0.0772 |
| AATCTGAC | -0.128 |
| CCCTCCGA | 0.155 |
| GGCTCTCA | -0.113 |
| CATACTTA | -0.167 |
| CAAGTCTA | -0.264 |
| TAGGGCGA | -0.131 |
| TAATGAGA | -0.153 |
| CCTGGTCC | 0.102 |
| ATCCCCAA | -0.0668 |
| CGACTATC | 0.0465 |
| ATAGAAAT | 0.0946 |
| CTGTGTCC | 0.0118 |
| CTTTTCTC | -0.181 |
| ACTCTAGC | -0.299 |
| GAGCACGC | -0.0355 |
| AAAGTCGA | 0.068 |
| AACACGCT | -0.0239 |
| AATCATAC | 0.0206 |
| ACCGTCTA | -0.0496 |
| CCTATTCG | -0.061 |
| CTCTGATA | -0.0373 |

| Sequence | PBM E-score |
| --- | --- |
| CGCGCAGC | 0.0673 |
| ACTCGGTA | -0.164 |
| AAGATCAG | -0.157 |
| TAGCCCTA | -0.226 |
| CGATGTCA | -0.0382 |
| AACGCTAG | -0.229 |
| CCATCATC | -0.157 |
| ACGTCTCT | -0.203 |
| AGAACGAG | -0.0522 |
| TCCAGGCA | -0.0729 |
| AAGACACA | -0.165 |
| GTCCCGAA | 0.0896 |
| AAATATCT | 0.109 |
| CAGCATGA | -0.184 |
| ACCGGGTA | 0.154 |
| GCTCACAA | -0.00352 |
| ATATATAT | 0.294 |
| ATATCAAC | 0.0435 |
| CGTCCAAC | -0.0891 |
| CTAGGCTC | -0.247 |
| ACCGCGTG | 0.0468 |
| CACCCGCC | 0.332 |

| Sequence | PBM E-score |
| --- | --- |
| CGGGAAGC | 0.282 |
| GGAACTAC | 0.212 |
| GAAAAACA | -0.153 |
| CCCTGGCA | 0.0222 |
| TAGGAGGA | -0.174 |
| ACCTCAAA | -0.00213 |
| ACTTACGA | 0.134 |
| AGGGTGGA | -0.0692 |
| ATAGTATG | 0.142 |
| ATAACCTC | -0.0805 |
| CAGTGTAG | -0.166 |
| CCAAGTAA | -0.011 |
| GTGCCCAC | -0.0988 |
| CTTTTAGA | -0.133 |
| GACGAGTA | -0.0519 |
| AGAGTTAT | -0.0671 |
| GACACAGC | -0.0237 |
| CCCCCGCC | 0.0181 |
| CTTACGGC | -0.0318 |
| AAACCGGA | 0.346 |
| AACCTTTA | -0.186 |
| CCGTCCTC | 0.151 |

| Sequence | PBM E-score |
| --- | --- |
| GCTTTGCA | -0.189 |
| CTGGCGCA | -0.204 |
| AACACCCC | 0.0302 |
| CAAGAAAC | 0.113 |
| CGGTGTTA | 0.182 |
| ATGCGGGC | -0.0361 |
| ACATCAGT | 0.0466 |
| GTCCTGCA | -0.258 |
| ACATTTCG | -0.127 |
| ATGGTCCG | 0.387 |
| CCCCCCGA | -0.0725 |
| CGTACAAC | -0.0261 |
| ATGCACGC | 0.0919 |
| ACCAGGCT | -0.4 |
| GGTTGGAA | 0.0933 |
| TGCCCACA | -0.234 |
| GCCCCGTA | -0.134 |
| GGCCACTA | -0.0808 |
| CAACCCAA | -0.113 |
| TCCTACAA | 0.00772 |
